The whole screen tested about 52,000 compounds, of which about 1,700 (3.3%) were called active. Rule as the data show it: active = survival mostly below about 52% (no sharp cut-off); inactive = mostly above about 56%. The list shows a part of the results.

This test concerns Wild type. Put plainly: growth inhibition of S. aureus wild type versus tarO mutant, primary screen, teichoic acid synthesis inhibitors, RN4220, OD600 (AID 463173). As to conditions: S. aureus RN4220 wild type/DeltatarO growth, OD600, 18 h, active compounds read low, screened at 18.75 µg/mL (by protocol).
As to `COc1cccc(Cn2c(C)c(CNCc3cccc(C)c3)c(C(=O)O)c2C)c1`, the survival is inactive: 122%.

On to `COc1cc2c(cc1OC)C(CC(=O)Nc1ccccc1)C(=O)NN=C2C` (centres undefined), for which the survival was inactive: 105%.

For the compound `CCN(C(=O)c1ccco1)c1nc(CC(=O)Nc2ccc(Cl)cc2)cs1`, the survival is inactive: 117%.

As for `Cc1cccc(-c2nc3c4ccccc4nc(N4CCN(c5cccc(Cl)c5)CC4)n3n2)c1`, the survival was inactive: 67%.

`O=C(CSc1nc2ccccc2nc1Cc1ccccc1)N1CCc2ccccc21`: the survival was inactive: 81%.

As to `Cc1cccc(NC(=O)CSc2nc(-c3cccs3)nc3cc(=O)[nH]n23)c1`, the survival was inactive: 68%.

Consider `COc1ccc(-c2c3c(nc4sc(C(=O)Nc5cccc(OC)c5)c(N)c24)CC(C)(C)CC3=O)cc1`, for which the survival was inactive: 77%.

On to `CCc1ccccc1NC(=O)Cn1c(=O)n(CCc2ccccc2)c(=O)c2sc3ccccc3c21`, for which the survival is inactive: 94%.

On to `N#C/C(=C\c1ccc(N2CCOCC2)o1)C(=O)NCC1CCCO1` (centres undefined), for which the survival is inactive: 108%.

In the case of `Cc1cc(C(=O)N2CCN(c3ccccc3F)CC2)c2c(C)nn(-c3ccccc3)c2n1`, the survival was inactive: 134%.

As to `COc1ccc(NC(=O)N(CCN(C)C)Cc2cc3cc(OC)ccc3[nH]c2=O)cc1`, the survival was inactive: 107%.

In the case of `Cc1cc(C)n2nc(CNS(=O)(=O)c3cccc(Cl)c3)nc2n1`, the survival is inactive: 120%.

As to `Cc1[nH]c(=O)[nH]c(=O)c1Cc1cccc2ccccc12`, the survival was inactive: 103%.

In the case of `COc1ccc(CCNC(=O)c2ccc(Cn3c(=O)c4cccn4c4cccnc43)cc2)cc1OC`, the survival is inactive: 96%.

Regarding `CCCCN(C)C(=O)CSc1c2c(nc3ccc(Cl)cc13)CCCC2`, the survival is active: -2%.

On to `CCC(C)NC(=O)c1ccc(CNS(=O)(=O)c2ccc3c(c2)C(C)(C)C(=O)N3C)cc1` (centres undefined), for which the survival was inactive: 97%.

With `Cc1cc(C)c2oc(-c3cccc(NC(=O)c4cccc(F)c4)c3C)nc2c1`, the survival is inactive: 70%.

Turning to `Cc1cccc(Cn2c(=O)n(-c3cc(C)cc(C)c3)c(=O)c3oc4ccccc4c32)c1`, the survival was inactive: 78%.

Take `CCc1nn(CCCC(=O)NCc2ccccc2OC)c(=O)c2cc3occc3n12`: the survival was inactive: 83%.

For the compound `CCc1ccc(S(=O)(=O)Nc2ccc3c(c2)sc(=O)n3C)cc1`, the survival is inactive: 90%.

Consider `Cc1ccc(Cl)cc1NC(=O)CN1C=NS(=O)(=O)c2ccccc21`, for which the survival is inactive: 73%.

On to `O=c1c2ccccc2nc(SCc2ccccc2)n1Cc1ccco1`, for which the survival was inactive: 111%.

Take `Cc1ccc(Cl)cc1N1CCN(C(=O)C2CCN(S(=O)(=O)c3cn(C)cn3)CC2)CC1`: the survival was inactive: 88%.

In the case of `Cc1cccc(N2CCN(CCCNC(=O)Cn3ncc4c([nH]c5ccccc54)c3=O)CC2C)c1` (centres undefined), the survival is inactive: 101%.

(Values after PubChem BioAssay AID463173 (ICCB-Longwood Screening Facility, Harvard Medical School, 2010).)
